According to the supplement of paper PMC10126150:
Sequences with one replicate were seen in a single cluster, so their values are uncertain.

System: ATP
Assay: switch fluorescence ratio, 500 uM ATP over buffer (Cy3 cluster intensity, sum of 5 cycles each) (fold (ratio)); higher = stronger signal-on switching upon ATP binding; sequences stand for … in TCGTCGGCAGCGTCAGATGTGTATAAGAGACAGTTTTTTTTTTTTTTTTTTTTTTTTT…TC
Details: aptamer strand: ATP DNA aptamer (quencher-CACCTGGGGGAGTATTGCGGAGGAAGG + anchor), 100 nM annealed; ATP concentration: 500 uM; one replicate
Procedure, shortened: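 Imaging in selection buffer was followed by imaging after 15 min with 500 uM ATP at 22 °C, for Cy3-labelled switching-strand clusters annealed to 100 nM quencher-labelled ATP aptamer on a modified Illumina MiSeq flow-cell. Five of these buffer/ATP cycles ran, separated by NaOH stripping and re-annealing. The fluorescence ratio per cluster is summed target-cycle over summed buffer-cycle Cy3 intensity, averaged per switch-domain sequence; clusters outside 100-1000 RFU were removed.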
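Also: ATP exposure 15 min at 22 °C before imaging.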

| Sequence | switch fluorescence ratio |
| --- | --- |
| AATACGCGGA | 1.09 |
| AATACGGTAC | 1.72 |
| AATACGTGAT | 1.04 |
| AATACTAATG | 0.987 |
| AATACTCGGA | 1.05 |
| AATAGACCCG | 1 |
| AATAGAGAGC | 0.91 |
| AATAGATCGC | 1.05 |
| AATAGCCAGG | 1.19 |
| AATAGGAGC | 0.978 |
| AATAGGATGC | 1 |
| AATAGGTAAT | 0.97 |
| AATAGTCCTC | 0.996 |
| AATATAACGT | 0.991 |
| AATATAGCTG | 1.09 |
| AATATATCC | 0.992 |
| AATATATCGT | 1.03 |
| AATATCGCCT | 1.01 |
| AATATCGTTA | 0.978 |
| AATATGATTA | 1 |
| AATATGTAGA | 0.961 |
| AATATGTCAT | 1.02 |
| AATATTCAGG | 1.01 |
| AATCAAGCTC | 0.978 |
| AATCAGAGGC | 1.02 |
| AATCAGGATG | 0.985 |

| Sequence | switch fluorescence ratio |
| --- | --- |
| AATCATAGCT | 1.01 |
| AATCATCGTT | 0.97 |
| AATCCGGCGA | 1.26 |
| AATCCTGAGG | 1.01 |
| AATCGAACCC | 1.03 |
| AATCGATATA | 1.03 |
| AATCGCACG | 1.05 |
| AATCGCACTG | 1.08 |
| AATCGCCTGC | 0.989 |
| AATCGCGAGG | 1.02 |
| AATCGCTGGA | 0.966 |
| AATCGGACT | 1.01 |
| AATCGGGCCC | 0.983 |
| AATCGGTCAA | 1.05 |
| AATCGTATGC | 1.01 |
| AATCGTCACA | 1.04 |
| AATCGTGTTC | 0.953 |
| AATCTAGTGA | 1.02 |
| AATCTATGGG | 0.991 |
| AATCTCAATC | 1.13 |
| AATCTCACT | 1.04 |
| AATCTGACTT | 0.973 |
| AATCTGAGGT | 1.04 |
| AATCTTTCAA | 1.02 |
| AATCTTTTCC | 1.06 |
| AATGAATCGG | 1.04 |

| Sequence | switch fluorescence ratio |
| --- | --- |
| AATGACTACT | 0.977 |
| AATGAGAGTA | 0.976 |
| AATGAGATG | 0.999 |
| AATGAGCGCC | 1 |
| AATGATCCTT | 1.06 |
| AATGATGGTG | 1.04 |
| AATGCAACCG | 1.04 |
| AATGCCACT | 0.999 |
| AATGCTAGGG | 0.988 |
| AATGCTGGAA | 1.02 |
| AATGGAACTT | 0.955 |
| AATGGACGGG | 0.996 |
| AATGGAGAGA | 0.993 |
| AATGGCAGT | 0.961 |
| AATGGCATGC | 1.02 |
| AATGGCGGGG | 0.988 |
| AATGGGCAAC | 0.973 |
| AATGGGG | 1.02 |
| AATGGTGGGA | 0.97 |
| AATGTAATTT | 1.02 |
| AATGTACTGG | 1.07 |
| AATGTCTAGT | 1.01 |
| AATGTCTGGT | 0.964 |
| AATGTGACCG | 1.03 |
| AATGTGACTG | 0.98 |
| AATGTGCCCT | 0.973 |

| Sequence | switch fluorescence ratio |
| --- | --- |
| AATGTGTCTG | 0.978 |
| AATGTTAAGC | 0.947 |
| AATGTTACTA | 1.03 |
| AATTAACACA | 1.03 |
| AATTAACTGG | 0.971 |
| AATTAAGATG | 1.06 |
| AATTAAGGAA | 0.993 |
| AATTACCCAC | 1.39 |
| AATTACGTGG | 0.989 |
| AATTACTATA | 1.14 |
| AATTAGGTG | 1.17 |
| AATTAGTGCA | 1.04 |
| AATTATACCT | 1.36 |
| AATTATACTT | 1.03 |
| AATTATGGGT | 1.03 |
| AATTCACCGA | 1.05 |
| AATTCATATG | 0.942 |
| AATTCGAGTA | 0.975 |
| AATTCGGATT | 0.991 |
| AATTCGGTTA | 1.02 |
| AATTCTAAAG | 1.01 |
| AATTCTTGCG | 0.975 |
| AATTGACTAT | 1.03 |
| AATTGATCAG | 0.977 |
| AATTGCGCAA | 1.01 |
| AATTGCTCTC | 1.02 |

| Sequence | switch fluorescence ratio |
| --- | --- |
| AATTGGCTAA | 1.02 |
| AATTGGTA | 0.983 |
| AATTGGTTAT | 1 |
| AATTGTCTG | 1.02 |
| AATTGTGAAC | 0.987 |
| AATTTACTTT | 1.1 |
| AATTTAGCTT | 1.05 |
| AATTTATCGA | 1.02 |
| AATTTATGTA | 1.04 |
| AATTTCACGT | 1.06 |
| AATTTCCACT | 0.996 |
| AATTTCTAGC | 0.948 |
| AATTTGGCGG | 1 |
| AATTTTACAC | 1.03 |
| AATTTTCCGT | 1.02 |
| AATTTTCTA | 1.01 |
| AATTTTGGCC | 0.969 |
| ACAAAAGTCG | 1.01 |
| ACAAACAGC | 1.11 |
| ACAAACCCGC | 1.14 |
| ACAAACTTTT | 1.13 |
| ACAAATACGA | 1.14 |
| ACAAATTAAC | 0.976 |
| ACAAATTCCT | 1.1 |
| ACAAATTTTG | 1.01 |
| ACAACAATTG | 0.998 |

| Sequence | switch fluorescence ratio |
| --- | --- |
| ACAACCGGAA | 1.38 |
| ACAACTCCCT | 1.23 |
| ACAACTGGAT | 0.929 |
| ACAAGAAGAC | 1.1 |
| ACAAGATCTA | 1 |
| ACAAGCAAA | 1.47 |
| ACAAGCAGC | 1.1 |
| ACAAGGGCAA | 0.927 |
| ACAAGGTGCG | 1.08 |
| ACAATAAAGA | 0.978 |
| ACAATCCCTA | 0.976 |
| ACAATCTTGA | 0.973 |
| ACAATGCACG | 1.09 |
| ACAATGCGGA | 1.07 |
| ACAATGGTTT | 0.964 |
| ACACAACGCG | 1.07 |
| ACACACCAAT | 1.15 |
| ACACAGTGGT | 1.08 |
| ACACATATGA | 1.04 |
| ACACCCATCG | 1.17 |
| ACACCGGGTT | 1.21 |
| ACACCGTTA | 1.05 |
| ACACCTCTGT | 0.988 |
| ACACGACATG | 1.04 |
| ACACGAGAAG | 1.04 |
| ACACGCAATT | 2.43 |

| Sequence | switch fluorescence ratio |
| --- | --- |
| ACACGGTGAG | 1 |
| ACACGTTATC | 1.21 |
| ACACTAAGC | 1.02 |
| ACACTACTTG | 1.16 |
| ACACTCGAG | 1 |
| ACACTCGTGG | 1.02 |
| ACACTCTT | 1.03 |
| ACACTGTTG | 0.976 |
| ACAGAAACGT | 1.08 |
| ACAGAATAGA | 1.01 |
| ACAGAATGCT | 1 |
| ACAGAATTGA | 0.977 |
| ACAGACACCG | 1.07 |
| ACAGAGGAAC | 0.99 |
| ACAGAGGCTA | 0.995 |
| ACAGAGGTCA | 1.01 |
| ACAGATGGTA | 1.01 |
| ACAGCCAGCC | 1.1 |
| ACAGCCCAAA | 0.989 |
| ACAGCCTAGT | 1.06 |
| ACAGCTACTT | 1.18 |
| ACAGCTGAAC | 1.21 |
| ACAGGAAGAA | 1.11 |
| ACAGGTAAGT | 0.986 |
| ACAGGTATTT | 0.977 |
| ACAGGTCAAG | 1 |

| Sequence | switch fluorescence ratio |
| --- | --- |
| ACAGTAAAGC | 1.14 |
| ACAGTAAAGG | 1.09 |
| ACAGTACA | 1.38 |
| ACAGTAGGGG | 1.03 |
| ACAGTCG | 1.02 |
| ACAGTCTACG | 1.08 |
| ACAGTGCGCA | 0.998 |
| ACAGTGGTTC | 0.962 |
| ACAGTGTATT | 0.994 |
| ACAGTTCC | 1.19 |
| ACATAACGTT | 1.38 |
| ACATAGACA | 1.08 |
| ACATAGACCC | 1.11 |
| ACATAGACTT | 1.05 |
| ACATAGCCGT | 1 |
| ACATAGGAGG | 1.04 |
| ACATATAC | 1.34 |
| ACATATAGGA | 1.04 |
| ACATCAAAAA | 1 |
